Reference: PubChem BioAssay AID1794842 (National Center for Advancing Translational Sciences (NCATS), 2023)
Hit rate of the full screen: of about 2,800 compounds, fewer than 10 were called active. Calls follow the shape of the dose curve; as a rule, active = well fitted curve in the direction sought with a large enough effect; inconclusive = small, poorly fitted or top-dose-only effect, or another doubt; inactive = no such curve, though single readings can be large or run the other way. The list shows a part of the results.

target: Metallo-beta-lactamase type 2 (Klebsiella pneumoniae) (UniProt C7C422); assay: qHTS to identify inhibitors of the New Delhi Metallo-beta-lactamase (NDM): Meropenem screen against the machine-based learning selections.; also: % of control where 0% means no effect; details: Purified NDM-1, meropenem hydrolysis, absorbance 300 nm; at 57.5 µM (top of the series) unless noted
Sequence of UniProt C7C422 (C7C422 whole entry, looked up): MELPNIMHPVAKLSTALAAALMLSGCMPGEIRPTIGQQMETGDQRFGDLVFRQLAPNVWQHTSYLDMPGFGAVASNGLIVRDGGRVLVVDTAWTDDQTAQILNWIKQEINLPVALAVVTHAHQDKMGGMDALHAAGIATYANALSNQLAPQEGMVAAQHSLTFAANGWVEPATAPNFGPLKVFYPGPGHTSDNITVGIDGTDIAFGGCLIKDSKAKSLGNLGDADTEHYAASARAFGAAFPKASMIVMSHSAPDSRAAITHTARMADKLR
How it was run: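 Hydrolysis by 2 nM NDM-1 was followed by absorbance after >30 min compound preincubation in HEPES pH 7.0 buffer with 1 uM Zn2SO4. For nitrocefin (16.7 uM, 15 min, 485 nm) and meropenem (50 uM, 30 min, 300 nm), each substrate ran on separate plates.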

Q: Which activity change, negative = inhibition does the source give for `CN(C)c1ccc(C(=O)NC[C@H]2C[C@@H]3CCN2C[C@@H]3CN(C)c2ccccc2)cc1` here?
A: Its activity change, negative = inhibition is inactive: 2.37%.

Q: With `CSCC(=O)Nc1ccc2n(c1=O)C[C@H]1C[C@@H]2CN(C(=O)COc2ccccc2)C1` as the compound, how does the activity change, negative = inhibition read?
A: The activity change, negative = inhibition was inactive: 19.4%.

Q: With `COc1cc2c(cc1OCc1ccncc1)NC(=O)C21CCN(Cc2ccccc2O)CC1` as the compound, how does the activity change, negative = inhibition read?
A: Its activity change, negative = inhibition is inactive: 4.89% [at 38.4 µM].

Q: For `Cc1ccc(S(=O)(=O)NC[C@H]2C[C@@H]3CCN2C[C@@H]3CN2CCCCC2)cc1`, which activity change, negative = inhibition is on record?
A: The activity change, negative = inhibition was inactive: -1.88%.

Q: How did the activity change, negative = inhibition turn out when `CC(C)NC(=O)NC[C@H]1C[C@@H]2CCN1C[C@@H]2CN1CCN(c2ccccn2)CC1` was run?
A: The activity change, negative = inhibition was inactive: 0.315%.

Q: For `O=C(Nc1nccs1)[C@H]1CN2CCC1C[C@@H]2Cn1cc(CC2CCCCC2)nn1` (stereo partly specified), which activity change, negative = inhibition is on record?
A: Its activity change, negative = inhibition is inactive: 5.28%.

Q: Which activity change, negative = inhibition does the source give for `COc1ccccc1-c1cc([C@H]2CN3CC[C@H]2C[C@@H]3CNC(=O)N2CCOCC2)n(C)n1` here?
A: The activity change, negative = inhibition was inactive: -1%.

Q: Which activity change, negative = inhibition does the source give for `O=C(NC[C@H]1C[C@@H]2CCN1C[C@@H]2CN1CCN(c2ccc(F)cc2)CC1)c1ccco1` here?
A: Its activity change, negative = inhibition is inactive: -0.0973%.

Q: For `CC[C@H]1CN2CC[C@H]1C[C@@H]2CNS(=O)(=O)c1ccc(NC(C)=O)cc1`, which activity change, negative = inhibition is on record?
A: The activity change, negative = inhibition was inactive: 36.8%.

Q: For `CCCCc1cn(C[C@H]2CC3CCN2C[C@@H]3C(=O)NCc2ccc3c(c2)OCO3)nn1` (stereo partly specified), which activity change, negative = inhibition is on record?
A: Its activity change, negative = inhibition is inactive: -4.5%.

Q: With `CCNC(=O)NC[C@H]1C[C@@H]2CCN1C[C@@H]2c1cc(-c2ccc(F)cc2)nn1C` as the compound, how does the activity change, negative = inhibition read?
A: Its activity change, negative = inhibition is inactive: -0.887%.

Q: For `Cc1nc(-c2ccc(C(F)(F)F)cc2)cc([C@H]2CN3CC[C@H]2C[C@@H]3CNC(=O)N2CCOCC2)n1`, which activity change, negative = inhibition is on record?
A: Its activity change, negative = inhibition is inactive: -1.71% [at 38.4 µM].

Q: Which activity change, negative = inhibition does the source give for `Cn1nc(-c2ccccc2)cc1[C@H]1CN2CC[C@H]1C[C@@H]2CNC(=O)c1ccco1` here?
A: The activity change, negative = inhibition was inactive: 0.292%.

Q: With `CC(C)(C)c1ccc(NC(=O)OC[C@H]2C[C@@H]3CCN2C[C@@H]3c2cc(C3CCCC3)nc(-c3ccncc3)n2)cc1` as the compound, how does the activity change, negative = inhibition read?
A: Its activity change, negative = inhibition is inactive: -1.83% [at 38.4 µM].

Q: Which activity change, negative = inhibition does the source give for `O=C(Cc1ccc(F)cc1Cl)N1C[C@H]2CC[C@@H]1CN(Cc1cccnc1)C2` here?
A: Its activity change, negative = inhibition is inactive: -3.88% [at 38.4 µM].

Q: How did the activity change, negative = inhibition turn out when `CC[C@H]1CN2CC[C@H]1C[C@@H]2CNC(=O)c1ccc(-c2ccccc2)cc1` was run?
A: The activity change, negative = inhibition was inactive: 1.87%.

Q: For `C=C[C@H]1CN2CC[C@H]1C[C@@H]2CNC(=O)Nc1ccc(C(C)(C)C)cc1`, which activity change, negative = inhibition is on record?
A: Its activity change, negative = inhibition is inactive: 6.57%.

Q: With `CCCS(=O)(=O)Nc1ccc(=O)n2c1[C@@H]1C[C@@H](CN(C(=O)c3ccc(F)cc3)C1)C2` as the compound, how does the activity change, negative = inhibition read?
A: Its activity change, negative = inhibition is inactive: 1.26%.

Q: With `CC(=O)N1C[C@@H]2C[C@H](C1)c1ccc(NC(=O)Nc3ccccc3)c(=O)n1C2` as the compound, how does the activity change, negative = inhibition read?
A: The activity change, negative = inhibition was inactive: 1.97%.

Q: How did the activity change, negative = inhibition turn out when `CCCS(=O)(=O)N1C[C@@H]2C[C@H](C1)c1ccc(-c3ccc4ccccc4c3)c(=O)n1C2` was run?
A: Its activity change, negative = inhibition is inactive: 1.69%.

Q: How did the activity change, negative = inhibition turn out when `CCN1CCCNCC12CCOCC2` was run?
A: The activity change, negative = inhibition was inactive: 49.4% [at 38.4 µM].

Q: How did the activity change, negative = inhibition turn out when `O=C(O)c1cn(Cc2ccc(F)cc2)nn1` was run?
A: The activity change, negative = inhibition was inactive: 45.8% [at 38.4 µM].

Q: With `COCCNC(=O)[C@H]1CN2CCC1C[C@@H]2Cn1cc(CCO)nn1` (stereo partly specified) as the compound, how does the activity change, negative = inhibition read?
A: Its activity change, negative = inhibition is inactive: 2.94%.

Q: How did the activity change, negative = inhibition turn out when `O=C(NCc1ccc(F)cc1)[C@H]1CN2CC[C@H]1C[C@@H]2Cn1cc(C2(O)CCCC2)nn1` was run?
A: The activity change, negative = inhibition was inactive: -0.552%.

Q: How did the activity change, negative = inhibition turn out when `C=C[C@H]1CN2CC[C@H]1C[C@@H]2CNS(=O)(=O)c1cccs1` was run?
A: The activity change, negative = inhibition was inactive: 31.6%.

Q: `CC(C)NC(=O)[C@H]1CN2CC[C@H]1C[C@@H]2Cn1cc(CO)nn1` was tested. Which activity change, negative = inhibition did it give?
A: The activity change, negative = inhibition was inactive: 1.66%.

Q: How did the activity change, negative = inhibition turn out when `CCNC(=O)NC[C@H]1C[C@@H]2CCN1C[C@@H]2c1cc(C2CCCCC2)nn1C` was run?
A: The activity change, negative = inhibition was inactive: -0.757%.

Q: With `Cc1nc(-c2ccccc2Br)cc([C@H]2CN3CC[C@H]2C[C@@H]3CNC(=O)c2cccs2)n1` as the compound, how does the activity change, negative = inhibition read?
A: Its activity change, negative = inhibition is inactive: -1.6% [at 38.4 µM].

Q: How did the activity change, negative = inhibition turn out when `C=CCN(C)C(=O)[C@H]1CN2CCC1C[C@@H]2Cn1cc(CO)nn1` (stereo partly specified) was run?
A: Its activity change, negative = inhibition is inactive: 15%.

Q: How did the activity change, negative = inhibition turn out when `O=C1N(Cc2cccnc2)C[C@H]2CN(C3CCOCC3)CCN12` was run?
A: Its activity change, negative = inhibition is inactive: -1.11%.

Q: `Cc1nc(-c2ccco2)cc([C@H]2CN3CC[C@H]2C[C@@H]3CNC(=O)C(C)(C)C)n1` was tested. Which activity change, negative = inhibition did it give?
A: The activity change, negative = inhibition was inactive: 11.4%.

Q: How did the activity change, negative = inhibition turn out when `CN(CCc1ccccn1)C[C@H]1CN2CC[C@H]1C[C@@H]2CNC(=O)c1ccc(C(F)(F)F)cc1` was run?
A: The activity change, negative = inhibition was inactive: 0.63% [at 38.4 µM].

Q: For `CCC(CC)c1cc([C@H]2CN3CC[C@H]2C[C@@H]3CNC(=O)COc2ccccc2)nc(-c2ccncc2)n1`, which activity change, negative = inhibition is on record?
A: The activity change, negative = inhibition was inactive: 1.04% [at 38.4 µM].

Q: `CC(=O)c1ccc(NC(=O)NC[C@H]2C[C@@H]3CCN2C[C@@H]3CN2CCC(Cc3ccccc3)CC2)cc1` was tested. Which activity change, negative = inhibition did it give?
A: The activity change, negative = inhibition was inactive: -1.49% [at 38.4 µM].

Q: How did the activity change, negative = inhibition turn out when `CC[C@H]1CN2CC[C@H]1C[C@@H]2CNS(=O)(=O)c1cccc(C#N)c1` was run?
A: The activity change, negative = inhibition was inactive: 30.9%.

Q: How did the activity change, negative = inhibition turn out when `COCCNC(=O)[C@H]1CN2CCC1C[C@@H]2Cn1cc(-c2ccc(-c3ccccc3)cc2)nn1` (stereo partly specified) was run?
A: The activity change, negative = inhibition was inactive: 2.08% [at 38.4 µM].

Q: For `CN(C)Cc1ccccc1-c1ccc2n(c1=O)C[C@H]1C[C@@H]2CN(C(=O)c2cnccn2)C1`, which activity change, negative = inhibition is on record?
A: Its activity change, negative = inhibition is inactive: 5.24%.

Q: `C#CCN(C)C[C@H]1CN2CC[C@H]1C[C@@H]2CNC(=O)Nc1ccc(C(C)=O)cc1` was tested. Which activity change, negative = inhibition did it give?
A: The activity change, negative = inhibition was inactive: 7.23%.

Q: For `COc1ccc(C(=O)NC[C@H]2C[C@@H]3CCN2C[C@@H]3c2cc(-c3ccc(N(C)C)cc3)nc(C)n2)cc1`, which activity change, negative = inhibition is on record?
A: The activity change, negative = inhibition was inactive: -3.1% [at 38.4 µM].

Q: Which activity change, negative = inhibition does the source give for `C#C[C@H]1CN2CC[C@H]1C[C@@H]2CNC(=O)Nc1cccc(SC)c1` here?
A: The activity change, negative = inhibition was inactive: -2.26%.

Q: `O=C(Cc1cccnc1)N1[C@H]2CC[C@@H]1c1cnc(-c3ccc(F)cc3)nc1C2` was tested. Which activity change, negative = inhibition did it give?
A: The activity change, negative = inhibition was inactive: 0.941% [at 38.4 µM].
